Measured values taken from PubChem BioAssay AID1468 (National Center for Advancing Translational Sciences (NCATS), 2008).
Among all 280,000 compounds or so, about 1,100 (0.39%) were called active. The shares of active, inactive and inconclusive entries below differ from those in the screen. The call rests on the fitted dose curve; in most records, active means well fitted inhibition curve with a large enough effect; inconclusive means small, poorly fitted or top-dose-only effect, or effect the other way; inactive means flat fitted curve, though single readings scatter. No potency is given beside an inconclusive call; the fits are too rough.

Each molecule was assayed against Microtubule-associated protein tau (Homo sapiens) (UniProt P10636) (assay: qHTS for Inhibitors of Tau Fibril Formation, Fluorescence Polarization). Conditions: K18 P301L tau heparin fibrillization, Alexa594 FP, 6 h; series mostly up to 57.7 µM; activity, negative = inhibition: at the top concentration.
Chain of UniProt P10636 (P10636 whole entry, looked up): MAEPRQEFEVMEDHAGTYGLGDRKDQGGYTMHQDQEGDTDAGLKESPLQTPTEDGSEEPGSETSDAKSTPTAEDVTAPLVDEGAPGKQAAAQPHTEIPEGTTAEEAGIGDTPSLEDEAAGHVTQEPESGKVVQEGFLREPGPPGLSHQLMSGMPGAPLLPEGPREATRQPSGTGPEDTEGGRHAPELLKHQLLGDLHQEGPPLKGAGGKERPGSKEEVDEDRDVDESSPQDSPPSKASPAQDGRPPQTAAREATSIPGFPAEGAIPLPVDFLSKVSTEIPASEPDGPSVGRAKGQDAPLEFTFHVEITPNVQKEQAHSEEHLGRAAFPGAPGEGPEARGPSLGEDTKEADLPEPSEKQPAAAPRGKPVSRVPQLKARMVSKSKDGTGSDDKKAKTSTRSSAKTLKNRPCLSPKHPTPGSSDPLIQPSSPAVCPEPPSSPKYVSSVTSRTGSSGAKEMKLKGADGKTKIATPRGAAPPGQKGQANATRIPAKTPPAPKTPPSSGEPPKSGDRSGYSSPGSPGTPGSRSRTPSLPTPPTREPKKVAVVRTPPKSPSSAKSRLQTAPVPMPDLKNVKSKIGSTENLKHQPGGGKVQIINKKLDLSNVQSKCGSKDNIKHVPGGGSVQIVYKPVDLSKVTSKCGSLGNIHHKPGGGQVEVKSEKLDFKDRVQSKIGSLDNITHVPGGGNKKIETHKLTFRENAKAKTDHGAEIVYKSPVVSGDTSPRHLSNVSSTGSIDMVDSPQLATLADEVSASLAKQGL
Summary of the method: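 Heparin (20 uM) drove fibril formation of recombinant tau K18 P301L, 15 uM unlabeled with 0.24 uM Alexa 594 label, for 6 hr at 37 C in 100 mM sodium acetate pH 7. Fluorescence polarization (555/632 nm) read 1 hr after 30 uM ThT.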
Further: nearly all actives have a fitted effect of over 55% in size.
On the % scale 0 is the no-effect control and ±100 the full control effect; potency means the concentration at half of the fitted maximal effect; tags describe the fitted curve by direction and shape.

With `O=C(/C=C/c1ccccc1Cl)Nn1cnc2ccccc2c1=O` as the molecule, how does the Potency read?
The Potency was inconclusive [activator, single point].

`O=C(CC(=O)c1ccccc1O)c1ccc(F)cc1` was tested. Which Potency did it give?
The Potency was inconclusive [inhibitor, single point].

Which Potency does the source give for `O=C(CSc1ncccc1-c1nc2ccccc2[nH]1)NCc1ccco1` here?
Its Potency is inconclusive [inhibitor, partial curve].

For `CCOC(=O)Nc1ccc2c(c1)N(C(=O)CN1CCN(C)CC1)c1ccccc1S2`, which Potency is on record?
The Potency was inconclusive [activator, single point].

`CC1CCc2c(sc3nnn(CC(=O)Nc4ccc(Cl)cc4)c(=O)c23)C1` (centres undefined) was tested. Which Potency did it give?
The Potency was inconclusive [inhibitor, partial curve].

With `O=C1COc2ccc(-c3cc(-c4ccccc4)c4c(n3)-c3cc(Cl)ccc3OC4)cc2N1` as the molecule, how does the Potency read?
The Potency was inconclusive [inhibitor, partial curve].

For `COc1ccc(NC(=O)CN2CCN(CC(=O)Nc3cc(OC)cc(OC)c3)CC2)cc1`, which “activity, negative = inhibition” value is on record?
The value was inactive: -13.4%.

`S=C(Nc1ccc(Cc2ccncc2)cc1)Nc1cccc(Cl)c1` was tested. Which Potency did it give?
Its Potency is inconclusive [inhibitor, single point].

Which Potency does the source give for `Cc1nn(CC(=O)N2CCN(c3cccc(C(F)(F)F)c3)CC2)c(=O)c2cccn12` here?
The Potency was inconclusive [inhibitor, single point].

For `CCCc1ccc(/C=C2\C(=O)c3ccccc3C(O)=C2C(=O)OCC)cc1`, which Potency is on record?
The Potency was inconclusive [inhibitor, single point].

`Cn1c(CSc2nc3ccc(Br)cc3[nH]2)nc2ccccc21` was tested. Which “activity, negative = inhibition” value did it give?
The value was inactive: -9.34%.

How did the Potency turn out when `O=C(CCSc1ccccn1)c1ccccc1` was run?
The Potency was inconclusive [activator, single point].

For `CC(=O)c1cccc(NC(=O)CCC2CCCC2)c1`, which Potency is on record?
Its Potency is inconclusive [inhibitor, partial curve, poor fit].

Which “activity, negative = inhibition” value does the source give for `CS(=O)(=O)c1nc(-c2ccccc2)cc(C(F)(F)F)n1` here?
Its value is inactive: -5.88%.

With `O=C(CSc1ccc2nc(-c3ccccc3)cn2n1)Nc1cccc(F)c1` as the molecule, how does the Potency read?
Its Potency is inconclusive [inhibitor, partial curve].

Which “activity, negative = inhibition” value does the source give for `COC(=O)Cn1c(CN2CCc3ccccc3C2)nc2c1c(=O)n(C)c(=O)n2C` here?
The value was inactive: -5.29%.

Which Potency does the source give for `COC(=O)C1=NOC2(C=C(Br)C(OC)=C(Br)C2=O)C1` (centres undefined) here?
Its Potency is inconclusive [inhibitor, partial curve, poor fit].

With `Cc1cccc(NC(=O)CSc2nc3ccc(NC(=O)COc4ccccc4F)cc3s2)c1` as the molecule, how does the Potency read?
Its Potency is inconclusive [inhibitor, partial curve].

With `COC(=O)/C(=C\C(=O)c1ccc([N+](=O)[O-])cc1)Nc1ccc(OC)cc1` as the molecule, how does the Potency read?
The Potency was inconclusive [activator, full curve, poor fit].

Which Potency does the source give for `COc1ccc(NC(=O)Cn2c(=O)n(Cc3ccc(C(=O)NCc4ccccc4Cl)cc3)c(=O)c3ccccc32)cc1` here?
Its Potency is active: 25.1 µM.

`COc1ccc(Oc2nc(C)nc3c2oc2ccccc23)cc1` was tested. Which Potency did it give?
Its Potency is inconclusive [inhibitor, single point].

How did the “activity, negative = inhibition” value turn out when `O=c1c(N2CCc3ccccc3C2)csc2ccc(Br)cc12` was run?
Its value is inactive: 2.34%.

`O=[N+]([O-])c1cc(S(=O)(=O)N2CCCC2)ccc1N/N=C1/CCCc2ccccc21` was tested. Which “activity, negative = inhibition” value did it give?
Its value is inactive: 4.12%.

`COc1ccccc1NC(=O)c1cc(C2CC2)nc2c1c(C)nn2-c1ccc(C)cc1` was tested. Which Potency did it give?
Its Potency is inconclusive [inhibitor, single point].

How did the Potency turn out when `CC(C)(C)c1ccc(NC(=O)CSc2nnc(-c3n[nH]c4ccccc34)o2)cc1` was run?
The Potency was active: 31.6 µM.

With `CC(C)c1ccc(/C=C2\Oc3c(ccc(O)c3CN3CCN(C)CC3)C2=O)cc1` as the molecule, how does the “activity, negative = inhibition” value read?
The value was inactive: 7.91%.

Which Potency does the source give for `C=CCn1c(NC(=O)c2ccc(Br)o2)c(S(=O)(=O)c2ccccc2)c2nc3ccccc3nc21` here?
The Potency was inconclusive [inhibitor, partial curve].

Which Potency does the source give for `COC(=O)c1scc(C)c1N/N=C(\C)c1ccc(F)cc1F` here?
The Potency was inconclusive [inhibitor, full curve, poor fit].

How did the Potency turn out when `Cc1ccccc1NS(=O)(=O)c1ccc(OCC(=O)NCc2ccco2)cc1` was run?
The Potency was inconclusive [inhibitor, single point].

For `Cc1ccc(-n2ncc3c(=O)n(CC(=O)Nc4cccc(Cl)c4)cnc32)cc1C`, which Potency is on record?
Its Potency is inconclusive [inhibitor, partial curve].

For `CN(C)CCCN(C(=O)CCc1ccccc1)c1nc2c(F)cccc2s1`, which “activity, negative = inhibition” value is on record?
Its value is inactive: 3.44%.

Which Potency does the source give for `COc1ccc(N/C(N)=N/c2nc(CSc3ccc(C)cc3)cc(=O)[nH]2)cc1` here?
The Potency was inconclusive [inhibitor, single point].

`C(=N\n1cnnc1)/c1cn(-c2cccs2)nc1-c1ccccc1` was tested. Which Potency did it give?
Its Potency is inconclusive [inhibitor, partial curve, poor fit].

Which “activity, negative = inhibition” value does the source give for `CCn1c(COc2cccc(C)c2C)nnc1SCC(=O)N1CCN(c2ccc(OC)cc2)CC1` here?
The value was inactive: -0.163%.

Which “activity, negative = inhibition” value does the source give for `CC(=O)C1=C(C)NC(=O)NC1c1ccc(Cl)cc1` (centres undefined) here?
The value was inactive: 2.24%.

For `CC(C)(C)OC(=O)CNC(=O)c1[nH]cnc1C(=O)Nc1ccc(Cl)cc1`, which Potency is on record?
Its Potency is active: 25.1 µM.

Which “activity, negative = inhibition” value does the source give for `CCc1noc(-c2ccc(N3CCCCC3)c([N+](=O)[O-])c2)n1` here?
Its value is inactive: -7.65%.

`COC(=O)c1oc2ccc(Br)cc2c1NC(=O)CCN1CCOCC1` was tested. Which “activity, negative = inhibition” value did it give?
Its value is inactive: -2.01%.

`CCCN(CCC)CCNC(=O)c1cc(-c2ccc(Br)s2)nc2ccccc12` was tested. Which Potency did it give?
The Potency was inconclusive [inhibitor, partial curve, poor fit].

For `CCN1C(=O)[C@H]2[C@H]3[C@H](O)[C@H](O)C/C(=N/NC(=O)OCc4ccccc4)[C@H]3CC[C@@H]2C1=O`, which activity, negative = inhibition is on record?
Its activity, negative = inhibition is inactive: 6.42% [at 11.6 µM].

Which Potency does the source give for `Cc1ccc(/C=C2/NC(=O)N(c3ccccc3)C2=O)o1` here?
The Potency was inconclusive [inhibitor, single point].

How did the “activity, negative = inhibition” value turn out when `Cc1ccccc1C(=O)Nc1ccc(N2CCCC2)cc1` was run?
The value was inactive: 3.41%.

With `C=CSc1sc(Cl)c(N(C)C)c1[N+](=O)[O-]` as the molecule, how does the Potency read?
Its Potency is inconclusive [inhibitor, single point].

Which Potency does the source give for `Cc1ccc(C(=O)CSc2nc3cc(S(=O)(=O)N4CCOCC4)ccc3o2)cc1` here?
Its Potency is inconclusive [inhibitor, single point].

For `CCCC1(C(=O)OCC)NC(c2ccc(N(C)C)cc2)C2C(=O)N(c3ccccc3)C(=O)C21` (centres undefined), which “activity, negative = inhibition” value is on record?
Its value is inactive: 14.9%.

With `CCS(=O)(=O)N1CCN(C2Cc3ccccc3C2)CC1` as the molecule, how does the “activity, negative = inhibition” value read?
The value was inactive: -3.85%.

How did the Potency turn out when `COC(=O)C1(C(=O)OC)C[C@H]2CON=C2[C@H]1c1ccccc1` was run?
The Potency was inconclusive [inhibitor, single point].

`Cc1ccc(S(=O)(=O)Cc2nc(-c3ccc(C(=O)NCc4ccccc4F)cc3)oc2C)cc1` was tested. Which “activity, negative = inhibition” value did it give?
Its value is inactive: -10.1%.

`Cc1cc(/C=N/Nc2ccc([N+](=O)[O-])cn2)c(C)n1-c1ccc(C(=O)O)cc1` was tested. Which Potency did it give?
Its Potency is inconclusive [inhibitor, single point].

Which “activity, negative = inhibition” value does the source give for `O=S(=O)(c1ccc(NC(=S)N/N=C/c2ccc(N3CCOCC3)cc2)cc1)N1CCOCC1` here?
The value was inactive: 14.3%.

`CC(C)(C)c1ccc(-c2noc(CCC(=O)Nc3cccc(Cl)c3)n2)cc1` was tested. Which Potency did it give?
Its Potency is inconclusive [inhibitor, full curve, poor fit].

`Cc1ccc(-c2nnc(Nc3cccc(C(F)(F)F)c3)c3ccccc23)cc1S(=O)(=O)N1CCOCC1` was tested. Which Potency did it give?
Its Potency is inconclusive [inhibitor, partial curve].

With `Cc1ccc(-n2c(SCC(N)=O)nc3c([nH]c4ccccc43)c2=O)cc1` as the molecule, how does the Potency read?
The Potency was “inactive”.

Which “activity, negative = inhibition” value does the source give for `Cc1cncn1CCc1nc2c3ccccc3nc(SCC(=O)Nc3ccccc3F)n2n1` here?
Its value is inactive: -7.68%.

Which Potency does the source give for `Cc1oc(=O)c(NC(=O)c2ccc(Cl)cc2)cc1C(=O)c1ccccc1` here?
The Potency was inconclusive [inhibitor, partial curve].

With `O=C(c1cc([N+](=O)[O-])ccc1Cl)N1CCN(c2ccc(F)cc2)CC1` as the molecule, how does the Potency read?
The Potency was inconclusive [inhibitor, single point].

`CCc1c(C)nc(N)n2c(SCC(=O)N3CCCC(C)C3)nnc12` (centres undefined) was tested. Which Potency did it give?
Its Potency is inconclusive [activator, single point].

How did the Potency turn out when `Cc1sc2nc(CSCC(=O)Nc3ccc(N4CCOCC4)cc3)[nH]c(=O)c2c1C` was run?
Its Potency is inconclusive [activator, full curve, poor fit].

With `COc1cccc2c1OC(=O)CC2c1ccc(C)cc1` (centres undefined) as the molecule, how does the “activity, negative = inhibition” value read?
Its value is inactive: 0.572% [at 81.3 µM].

Which “activity, negative = inhibition” value does the source give for `Cc1ccc(C(=O)N2CCN(C3c4cccc5cccc(c45)C3NS(=O)(=O)c3ccccc3)CC2)cc1` (centres undefined) here?
Its value is inactive: -6.75%.

With `COc1ccc(-c2cn3nc(N4CCC(C(=O)Nc5ccc(C)cc5)CC4)sc3n2)cc1` as the molecule, how does the “activity, negative = inhibition” value read?
Its value is inactive: -2.01%.

Which activity, negative = inhibition does the source give for `CO/N=C(/C)CCC(=O)OC[C@@H]1O[C@H](c2ccccc2)C=C[C@@H]1Oc1ccc(OC)cc1` here?
Its activity, negative = inhibition is inactive: -7.63% [at 11.6 µM].

For `CCn1c(=O)cc(SCC(=O)N2CCCCC2)c2ccccc21`, which Potency is on record?
Its Potency is inconclusive [inhibitor, single point].

For `C[C@H]1COc2c(N3CCN(C)CC3)c(F)cc3c(=O)c(C(=O)NCc4ccco4)cn1c23`, which “activity, negative = inhibition” value is on record?
Its value is inactive: -6.29%.

Which “activity, negative = inhibition” value does the source give for `O=C(N/N=C/c1ccco1)c1cccc(S(=O)(=O)Nc2ccccc2Cl)c1` here?
The value was inactive: 3.14%.

`O=C(CCCN1C(=O)/C(=C\c2cccs2)SC1=S)Nc1ccccn1` was tested. Which Potency did it give?
Its Potency is inconclusive [inhibitor, single point].

`COc1ccc(N2C3=C(CC4=C2CCCC4=O)C(=O)CCC3)cc1` was tested. Which Potency did it give?
The Potency was inconclusive [inhibitor, single point].

For `O=C(N/C(=C\c1ccco1)C(=O)N1CCOCC1)c1ccco1`, which Potency is on record?
The Potency was inconclusive [inhibitor, full curve].

For `C=CCOc1cccc(C2C(C(=O)c3ccc(C)o3)=C(O)C(=O)N2c2nccs2)c1` (centres undefined), which Potency is on record?
The Potency was inconclusive [inhibitor, single point].
